Measurements from ChEMBL document CHEMBL5724801, “EUbOPEN Chemogenomics Library - Multiplex” (2024).
Not every entry of the source has a single result; some have several. Only these are listed. There may be further records. The values listed for one entry are repeats in other runs, samples, wells, individuals or studies.

What was measured:
Type in all cases: toxicity, cell-based
HEK-293T = test: Multiplex assay against HEK293T; details: human
How it was run: (§1)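 Live cells carried four stains from seeding: Hoechst33342, BioTracker Green Microtubule Cytoskeleton Dye, MitoTracker Red and Annexin V Alexa Fluor 680. They were imaged on a CQ1 microscope at 37°C and 5% CO2 after compound addition. Using CellPathfinder machine-learning gating, cells were split into Hoechst high-intensity objects or normal cells, normal cells into healthy, pyknosed or fragmented nuclei, and pyknosed cells into mitotic or apoptotic; tubulin, mitochondrial-mass and membrane-permeability phenotypes are per cents of healthy-nucleus cells.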

Fibroblast = test: Multiplex assay against human fibroblast; how it was run: as §1
U2OS = test: Multiplex assay against U2OS; details: human; how it was run: as §1
[1] = 24 h, 1 µM, compound concentration 1 uM
[2] = 48 h, 10 µM, compound concentration 10 uM
[3] = 48 h, 1 µM, compound concentration 1 uM
[4] = 12 h, 1 µM, compound concentration 1 uM
[5] = 12 h, 10 µM, compound concentration 10 uM
[6] = 24 h, 10 µM, compound concentration 10 uM

Cc1ccc(-c2ccc(F)cc2COc2ccc(CCC(=O)O)cc2)cc1
Population Apoptotic (%) (HEK-293T; [1]): 16% and 52%
Population Tubulin-Different-Phenotype (%) (Fibroblast; [2]): 20% and 62%

Cc1c(CC(=O)O)c2cccnc2n1Cc1ccc(S(C)(=O)=O)cc1C(F)(F)F [FEVIPIPRANT]
Population Mitotic Cells (%) (U2OS; [3]): 34% and 9%
Population Membrane Permeable-Phenotype (%) (Fibroblast; [4]): 1% and 13%

O=C(Nc1cc(C(F)(F)F)ccc1N1CCCCC1)c1ccncc1
Population Mitochondria Different-Phenotype (%) (U2OS; [5]): 1.28% and 23.68%
Population Mitochondria Different-Phenotype (%) (U2OS; [6]): 0.59% and 15.75%
Total Cell Count (U2OS; [6]): 587 and 183
Population Mitochondria Different-Phenotype (%) (U2OS; [2]): 0.44% and 11.26%
Total Cell Count (U2OS; [2]): 1047 and 294
Population Healthy Nuclei (%) (HEK-293T; [4]): 54.49% and 12.93%
Population Tubulin-Different-Phenotype (%) (HEK-293T; [4]): 3.98% and 42.11%
Total Cell Count (HEK-293T; [1]): 559 and 165
Population Tubulin-Different-Phenotype (%) (HEK-293T; [3]): 1.68% and 30%
Total Cell Count (HEK-293T; [3]): 1326 and 227
Population Tubulin-Different-Phenotype (%) (HEK-293T; [2]): 7.26% and 41.5%
Population Apoptotic (%) (Fibroblast; [4]): 7.41% and 24.32%
Population Tubulin-Different-Phenotype (%) (Fibroblast; [3]): 6.32% and 22.73%
Population Apoptotic (%) (Fibroblast; [2]): 38.89% and 9.09%

CN1C[C@H](C(=O)N[C@]2(C)O[C@@]3(O)[C@@H]4CCCN4C(=O)[C@H](Cc4ccccc4)N3C2=O)C[C@@H]2c3cccc4[nH]cc(c34)C[C@H]21.CS(=O)(=O)O [DIHYDROERGOTAMINE MESYLATE]
Population Mitotic Cells (%) (U2OS; [5]): 28% and 0%
Population Tubulin-Different-Phenotype (%) (Fibroblast; [5]): 8% and 42%
Population Tubulin-Different-Phenotype (%) (Fibroblast; [6]): 15% and 46%

CN1CCN(c2cc(-c3ccccc3)nc(N)n2)CC1
Population Fragmented Nuclei (%) (U2OS; [5]): 30% and 8%

COCCNc1cc(NC(=O)N2CCCc3cc(CN4CCN(C)CC4=O)c(C=O)nc32)ncc1C#N [FGF401]
Population Healthy Nuclei (%) (HEK-293T; [4]): 51.34% and 12.59%
Population Mitochondria Different-Phenotype (%) (HEK-293T; [4]): 37.21% and 0%
Population Apoptotic (%) (HEK-293T; [5]): 5.3% and 19.78%
Population Healthy Nuclei (%) (HEK-293T; [5]): 55.97% and 13.16%
Population Tubulin-Different-Phenotype (%) (HEK-293T; [5]): 7.3% and 46.67%
Total Cell Count (HEK-293T; [1]): 539 and 144
Population Healthy Nuclei (%) (HEK-293T; [6]): 76.15% and 21.21%
Population Pyknosed Nuclei (%) (HEK-293T; [6]): 22.24% and 73.48%
Total Cell Count (HEK-293T; [6]): 499 and 132
Population Pyknosed Nuclei (%) (HEK-293T; [3]): 12.3% and 45%
Population Tubulin-Different-Phenotype (%) (HEK-293T; [3]): 3.02% and 60.82%
Total Cell Count (HEK-293T; [3]): 1236 and 180
Population Apoptotic (%) (HEK-293T; [2]): 5.63% and 19.3%
Population Pyknosed Nuclei (%) (HEK-293T; [2]): 12.37% and 40.71%
Population Tubulin-Different-Phenotype (%) (HEK-293T; [2]): 2.06% and 50.6%
Total Cell Count (HEK-293T; [2]): 1148 and 141
Population Pyknosed Nuclei (%) (Fibroblast; [1]): 20.64% and 5.33%
Population Apoptotic (%) (Fibroblast; [3]): 36.36% and 6.67%
Population Mitochondria Different-Phenotype (%) (Fibroblast; [2]): 14.39% and 3.61%

COC(=O)c1ccc2c(c1)NC(=O)/C2=C(\Nc1ccc(N(C)C(=O)CN2CCN(C)CC2)cc1)c1ccccc1 [NINTEDANIB]
Population Mitochondria Different-Phenotype (%) (U2OS; [5]): 5.07% and 26.67%
Population Mitochondria Different-Phenotype (%) (U2OS; [1]): 0.21% and 10.29%
Total Cell Count (U2OS; [1]): 518 and 172
Population Mitochondria Different-Phenotype (%) (U2OS; [6]): 9.84% and 44%
Total Cell Count (U2OS; [3]): 856 and 248
Total Cell Count (U2OS; [2]): 422 and 132
Population Mitochondria Different-Phenotype (%) (Fibroblast; [3]): 14.77% and 4.4%
Population Pyknosed Nuclei (%) (Fibroblast; [2]): 27.42% and 7.49%

O=C(NCCN1CCC(n2c(=O)[nH]c3cc(Cl)ccc32)CC1)c1ccc(F)cc1 [HALOPEMIDE]
Population Mitotic Cells (%) (U2OS; [4]): 4% and 50%
Population Mitotic Cells (%) (U2OS; [3]): 32% and 4%

COc1cc(Nc2ncc3c(n2)-c2ccc(Cl)cc2C(c2c(F)cccc2OC)=NC3)ccc1C(=O)O [ALISERTIB]
Population Mitotic Cells (%) (HEK-293T; [5]): 38% and 11%
Population Hoechst High Intensity Objects (%) (HEK-293T; [6]): 6% and 34%
Population Hoechst High Intensity Objects (%) (HEK-293T; [3]): 3% and 15%
Population Hoechst High Intensity Objects (%) (HEK-293T; [2]): 5% and 32%
Population Mitotic Cells (%) (HEK-293T; [2]): 52% and 17%

COc1cccc2c1c(NS(=O)(=O)c1ccc(Cl)s1)nn2Cc1cccc(CNC(=O)C(C)(C)O)c1
Population Mitotic Cells (%) (U2OS; [3]): 4% and 25%

CN(C)C/C=C/C(=O)Nc1ccc(C(=O)N2CCCC(Nc3ncc(Cl)c(-c4c[nH]c5ccccc45)n3)C2)cc1 (stereo not given)
Population Membrane Permeable-Phenotype (%) (Fibroblast; [5]): 1% and 12%

CN1CCN(c2nc3cc(C(F)(F)F)ccc3n3cccc23)CC1.O=C(O)/C=C\C(=O)O.O=C(O)/C=C\C(=O)O
Population Pyknosed Nuclei (%) (Fibroblast; [4]): 9% and 30%

Cc1c(Cc2ccc3ccccc3n2)c2cc(F)ccc2n1CC(=O)O [TIMAPIPRANT]
Total Cell Count (U2OS; [4]): 298 and 94
Total Cell Count (U2OS; [1]): 371 and 117
Population Mitotic Cells (%) (U2OS; [6]): 5% and 27%
Total Cell Count (U2OS; [3]): 536 and 168
Population Fragmented Nuclei (%) (Fibroblast; [1]): 9% and 30%

CC(=O)O[C@H]1C(=O)[C@@]2(C)[C@H]([C@H](OC(=O)c3ccccc3)[C@]3(O)C[C@H](OC(=O)[C@H](O)[C@@H](NC(=O)c4ccccc4)c4ccccc4)C(C)=C1C3(C)C)[C@]1(OC(C)=O)CO[C@@H]1C[C@@H]2O [PACLITAXEL]
Population Tubulin-Different-Phenotype (%) (Fibroblast; [6]): 12% and 40%

Cl.O=S(=O)(c1cccc2c(I)cccc12)N1CCCNCC1
Population Mitochondria Different-Phenotype (%) (U2OS; [5]): 0.95% and 16.98%
Total Cell Count (U2OS; [5]): 483 and 143
Population Mitochondria Different-Phenotype (%) (U2OS; [6]): 0.37% and 13.74%
Total Cell Count (U2OS; [6]): 611 and 178
Total Cell Count (U2OS; [3]): 885 and 292
Total Cell Count (U2OS; [2]): 1051 and 269
Population Apoptotic (%) (Fibroblast; [5]): 5.77% and 32.53%
Population Mitochondria Different-Phenotype (%) (Fibroblast; [3]): 12.2% and 1.76%
Population Tubulin-Different-Phenotype (%) (Fibroblast; [3]): 6.83% and 26.47%
Population Fragmented Nuclei (%) (Fibroblast; [2]): 17.15% and 4.68%
